The text below walks through data of the BET-seq Pho4 binding data (Le et al. 2018).

The other results are listed elsewhere or left out. Values were computed here from the reads of four pooled replicates and scatter widely.

This test addresses T1, Pho4 (S. cerevisiae) (UniProt P07270).
T1 sequence: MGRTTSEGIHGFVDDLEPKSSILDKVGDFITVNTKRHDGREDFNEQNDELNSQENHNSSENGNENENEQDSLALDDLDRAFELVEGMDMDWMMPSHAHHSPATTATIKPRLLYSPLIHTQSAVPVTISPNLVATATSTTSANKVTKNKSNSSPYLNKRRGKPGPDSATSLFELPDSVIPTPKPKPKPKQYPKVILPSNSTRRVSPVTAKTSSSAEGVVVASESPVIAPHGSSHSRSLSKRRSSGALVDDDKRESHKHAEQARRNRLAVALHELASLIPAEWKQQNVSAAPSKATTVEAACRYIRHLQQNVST
As to the kind of experiment: relative binding free energy (BET-seq); higher = weaker binding. As to conditions: reference: library average.
On to ATTAACACGTGTTGTT, for which the “relative binding free energy” value is -0.04 kcal/mol.
Take TTTTGCACGTGATAAG: the “relative binding free energy” value was determined as 0.09 kcal/mol.
With CGGGCCACGTGAGATT, the “relative binding free energy” value amounted to 0.46 kcal/mol.
With GTTCGCACGTGATATG, the “relative binding free energy” value was found to be 0.11 kcal/mol.
To CGTGGCACGTGGAGAA belongs 0.05 kcal/mol; to ATTAGCACGTGGGTCC, -0.07 kcal/mol.
With ATAATCACGTGTCGGG the figure was 0.14 kcal/mol; with TTAAGCACGTGTATGC, 0.05 kcal/mol.
For GTTATCACGTGGAGTG, the “relative binding free energy” value was found to be 0.3 kcal/mol.
With TTTGGCACGTGTCATT the figure was -0.12 kcal/mol; with ATATTCACGTGTCTAG, 0.29 kcal/mol; with AATAGCACGTGGGTCT, -0.11 kcal/mol.
To CGATGCACGTGTTGTA belongs -0.05 kcal/mol; to AGTAGCACGTGCTATT, -0.09 kcal/mol; to CATATCACGTGGTTGC, 0.17 kcal/mol.
To AACTGCACGTGGAGGT belongs 0.02 kcal/mol; to AGGATCACGTGATGTA, 0.16 kcal/mol.
For TTAGGCACGTGACGTG, the “relative binding free energy” value is -0.01 kcal/mol.
To GGTCGCACGTGTTTCG belongs 0 kcal/mol; to CGGCGCACGTGAGGGT, 0.13 kcal/mol; to AGTGACACGTGTAGAT, 0.11 kcal/mol.
TATATCACGTGGGGAT: the “relative binding free energy” value is 0.07 kcal/mol.
To CGTTTCACGTGTAGTG belongs 0.22 kcal/mol.
With TGTGTCACGTGCTCTT the figure was -0.02 kcal/mol.
Turning to AGTGGCACGTGTCTGA, the “relative binding free energy” value was -0.12 kcal/mol.
With AGGGCCACGTGGGATG the figure was -0.14 kcal/mol; with TGGTTCACGTGGGCCT, 0.17 kcal/mol; with TAGGGCACGTGAGTAA, 0.01 kcal/mol.
Take GCATTCACGTGTTGGT: the “relative binding free energy” value was 0.36 kcal/mol.
To AGTGGCACGTGCTATA belongs -0.16 kcal/mol; to GGGAGCACGTGGGTAT, -0.18 kcal/mol; to TTTAGCACGTGCGTGT, -0.17 kcal/mol.
To TGTAGCACGTGTGCGT belongs -0.04 kcal/mol; to TAAGACACGTGGGTTT, -0.03 kcal/mol.
To TGGCGCACGTGATTTG belongs 0.03 kcal/mol; to ATGCGCACGTGAGGTG, 0.05 kcal/mol.
As for ATCCTCACGTGTTGGT, the “relative binding free energy” value turned out to be 0.19 kcal/mol.
With TGGTACACGTGGCTTA the figure was -0.02 kcal/mol; with TTGTGCACGTGTTATC, -0.03 kcal/mol; with CGTTGCACGTGCGGTA, -0.11 kcal/mol.
With TAGGCCACGTGCGTGG the figure was -0.22 kcal/mol; with GAGTCCACGTGGCGGT, 0.08 kcal/mol.
To GAGGCCACGTGGTGGT belongs -0.09 kcal/mol; to TTCGGCACGTGTAGAT, 0.05 kcal/mol.
For TGATGCACGTGTTTTA, the “relative binding free energy” value came to 0.05 kcal/mol.
With GTGGGCACGTGTCAAA the figure was 0.04 kcal/mol; with TAGGACACGTGGATCG, 0.08 kcal/mol.
With CGCATCACGTGGAGGG the figure was 0.17 kcal/mol; with GGGTGCACGTGGGTTT, -0.04 kcal/mol.
With ACAGACACGTGGGGGA the figure was -0.11 kcal/mol.
For CTATGCACGTGGGGGC, the “relative binding free energy” value was -0.2 kcal/mol.
Consider GTGGGCACGTGACATT, for which the “relative binding free energy” value was 0 kcal/mol.
To TTGGTCACGTGGTCTT belongs 0.07 kcal/mol; to TATAACACGTGTTAGT, -0.08 kcal/mol.
With TTTTACACGTGGTTTG the figure was 0.12 kcal/mol; with TTAAGCACGTGTATTG, -0.13 kcal/mol; with CTTTTCACGTGTGAGG, 0.3 kcal/mol.
With TGTGGCACGTGCATAT the figure was -0.27 kcal/mol; with TCAGTCACGTGTTCGG, 0.08 kcal/mol; with TAGAGCACGTGGAGGA, -0.2 kcal/mol.
For the sequence ATATGCACGTGAGGGA, the “relative binding free energy” value was determined as 0.14 kcal/mol.
With AATGACACGTGTTTTG the figure was -0.1 kcal/mol; with AGGCTCACGTGAGTTG, 0.32 kcal/mol; with TGTGACACGTGATCGG, 0.08 kcal/mol.
To TGGCTCACGTGGCGGG belongs 0.15 kcal/mol; to TTATTCACGTGAATTA, 0.29 kcal/mol; to TAAAGCACGTGTTATA, 0.05 kcal/mol.
TATATCACGTGAAATG: the “relative binding free energy” value was found to be 0.25 kcal/mol.
To ATAATCACGTGTGGGA belongs 0.24 kcal/mol.
For TTTTACACGTGGCTTA, the “relative binding free energy” value is -0.02 kcal/mol.
As for TGGGACACGTGTGGAG, the “relative binding free energy” value was 0.19 kcal/mol.
In the case of TTGATCACGTGGTATT, the “relative binding free energy” value is 0.08 kcal/mol.
For TAATGCACGTGTCATT, the “relative binding free energy” value was -0.08 kcal/mol.
On to CAAGGCACGTGCGTGG, for which the “relative binding free energy” value was -0.32 kcal/mol.
With AAGGGCACGTGTCTTT, the “relative binding free energy” value is -0.12 kcal/mol.
With TATATCACGTGTATTG the figure was 0.04 kcal/mol; with TGCTTCACGTGTTAGA, 0.41 kcal/mol; with TTTAACACGTGATAGG, 0.19 kcal/mol.
With TAGGTCACGTGTCGAG the figure was 0.17 kcal/mol.
With CTGTGCACGTGTGTAT, the “relative binding free energy” value came to 0.01 kcal/mol.
As to CGGGGCACGTGGGTTG, the “relative binding free energy” value was -0.19 kcal/mol.
To ATGGCCACGTGTGTGT belongs -0.08 kcal/mol; to TAGTACACGTGGGGGT, -0.1 kcal/mol.
With TGATGCACGTGAGAAG the figure was 0.32 kcal/mol; with TTGATCACGTGAACGT, 0.24 kcal/mol.
To TGGGACACGTGTTTGC belongs -0.13 kcal/mol.
In the case of AGTGGCACGTGAGTAC, the “relative binding free energy” value was 0.13 kcal/mol.
GTTGACACGTGATATA: the “relative binding free energy” value stood at 0.12 kcal/mol.
To TCGTTCACGTGGTGCA belongs 0.22 kcal/mol; to AAGTTCACGTGTCGTA, 0.23 kcal/mol.
To TATTTCACGTGTCGGA belongs 0.33 kcal/mol; to GTGTGCACGTGAATGA, 0.31 kcal/mol; to TTGGTCACGTGAACAG, 0.4 kcal/mol.
For the sequence GTGATCACGTGTTAGC, the “relative binding free energy” value was determined as 0.2 kcal/mol.
To AATTGCACGTGTGAGT belongs 0.06 kcal/mol; to GAGAGCACGTGATTTG, 0.32 kcal/mol; to AGTGTCACGTGAAAGT, 0.1 kcal/mol.
To GATTTCACGTGTGTAT belongs 0.32 kcal/mol.
Take TTACTCACGTGTATTG: the “relative binding free energy” value came out at 0.15 kcal/mol.
Turning to AGGCTCACGTGGGGCG, the “relative binding free energy” value was 0.07 kcal/mol.
As for ATTGGCACGTGGGATA, the “relative binding free energy” value was -0.14 kcal/mol.
With AGTGTCACGTGTCGAG the figure was 0.11 kcal/mol; with GGATTCACGTGATTGT, 0.42 kcal/mol.
To TAGGTCACGTGACTTG belongs 0.32 kcal/mol; to TGGGGCACGTGATTTA, 0 kcal/mol.
With GGCTTCACGTGTAATG the figure was 0.31 kcal/mol.
For the sequence ATTGTCACGTGGAGGA, the “relative binding free energy” value turned out to be 0.22 kcal/mol.
Take AGTGGCACGTGCGGCG: the “relative binding free energy” value is -0.18 kcal/mol.
In the case of AGGTGCACGTGCTGGG, the “relative binding free energy” value is -0.05 kcal/mol.
In the case of TTTAACACGTGGCGGA, the “relative binding free energy” value is -0.08 kcal/mol.
With CTGTTCACGTGTGGAT the figure was 0.29 kcal/mol.
TGACTCACGTGTTGAG: the “relative binding free energy” value is 0.28 kcal/mol.
For the sequence AGTGCCACGTGGTAGT, the “relative binding free energy” value was -0.18 kcal/mol.
With CGAAGCACGTGGTGAT, the “relative binding free energy” value was determined as 0.01 kcal/mol.
With GTTGCCACGTGGTTTG the figure was -0.14 kcal/mol.
GACATCACGTGGGGTG: the “relative binding free energy” value was -0.13 kcal/mol.
With GTGATCACGTGAAGTT the figure was 0.39 kcal/mol.
With GGGCACACGTGCTTGT, the “relative binding free energy” value is 0.11 kcal/mol.
To TGGGTCACGTGTCGAA belongs 0.07 kcal/mol; to TGGCTCACGTGGAGGT, 0.18 kcal/mol.
With TTTGACACGTGGTAAC the figure was 0.18 kcal/mol; with ATGAGCACGTGGGGGA, -0.25 kcal/mol.
As for TGCCGCACGTGATTGG, the “relative binding free energy” value turned out to be 0.05 kcal/mol.
Turning to CAAGGCACGTGGTTGT, the “relative binding free energy” value was -0.18 kcal/mol.
To TAAGGCACGTGTTGGA belongs -0.04 kcal/mol; to TGTCTCACGTGGGCTT, 0.1 kcal/mol.
Regarding GTTAACACGTGCAGAT, the “relative binding free energy” value stood at 0.24 kcal/mol.
TTTTACACGTGTTGTT: the “relative binding free energy” value was 0.07 kcal/mol.
With TATGTCACGTGCCTTG the figure was 0.03 kcal/mol.
Regarding TTTAGCACGTGGAAAG, the “relative binding free energy” value is -0.08 kcal/mol.
Turning to AATTACACGTGGGGGT, the “relative binding free energy” value was -0.01 kcal/mol.
In the case of AGCGTCACGTGTATTT, the “relative binding free energy” value was 0.08 kcal/mol.
To TTTGTCACGTGAAGCG belongs 0.37 kcal/mol; to TGATACACGTGGTGCT, -0.12 kcal/mol; to TTCGTCACGTGTAATT, 0.26 kcal/mol.
As to AGCTACACGTGTGGGT, the “relative binding free energy” value was 0.12 kcal/mol.
Turning to AGCGGCACGTGTCAGG, the “relative binding free energy” value is -0.16 kcal/mol.
As for CGTTACACGTGTGTAG, the “relative binding free energy” value worked out at 0.04 kcal/mol.
With AGGTCCACGTGGCTGG the figure was -0.06 kcal/mol; with GGGTGCACGTGCTTGA, -0.05 kcal/mol; with ATGGGCACGTGGTGGT, -0.19 kcal/mol.
As for TGTGACACGTGCATGG, the “relative binding free energy” value was -0.14 kcal/mol.
As to GTTGGCACGTGAAATA, the “relative binding free energy” value was 0.22 kcal/mol.
To TGAGTCACGTGGACGG belongs 0.15 kcal/mol; to TGTTCCACGTGTCGGG, 0.07 kcal/mol.
With GCATTCACGTGAGTAT the figure was 0.51 kcal/mol.
